# Measurements taken from PubChem BioAssay AID720708 (National Center for Advancing Translational Sciences (NCATS), 2013).
# Screen size: about 360,000 compounds; about 660 (0.18%) were called active. The shares of active, inactive and inconclusive entries below differ from those in the screen. The call rests on the fitted dose curve; in most records, active means well fitted inhibition curve with a large enough effect; inconclusive means small, poorly fitted or top-dose-only effect; inactive means no such curve, though single readings can be large or run the other way. Potencies of inconclusive entries are left out as doubtful fits.
# Biological target: Rap guanine nucleotide exchange factor 4 (Homo sapiens) (UniProt Q8WZA2)
# UniProt Q8WZA2, sequence (Q8WZA2 whole entry, looked up): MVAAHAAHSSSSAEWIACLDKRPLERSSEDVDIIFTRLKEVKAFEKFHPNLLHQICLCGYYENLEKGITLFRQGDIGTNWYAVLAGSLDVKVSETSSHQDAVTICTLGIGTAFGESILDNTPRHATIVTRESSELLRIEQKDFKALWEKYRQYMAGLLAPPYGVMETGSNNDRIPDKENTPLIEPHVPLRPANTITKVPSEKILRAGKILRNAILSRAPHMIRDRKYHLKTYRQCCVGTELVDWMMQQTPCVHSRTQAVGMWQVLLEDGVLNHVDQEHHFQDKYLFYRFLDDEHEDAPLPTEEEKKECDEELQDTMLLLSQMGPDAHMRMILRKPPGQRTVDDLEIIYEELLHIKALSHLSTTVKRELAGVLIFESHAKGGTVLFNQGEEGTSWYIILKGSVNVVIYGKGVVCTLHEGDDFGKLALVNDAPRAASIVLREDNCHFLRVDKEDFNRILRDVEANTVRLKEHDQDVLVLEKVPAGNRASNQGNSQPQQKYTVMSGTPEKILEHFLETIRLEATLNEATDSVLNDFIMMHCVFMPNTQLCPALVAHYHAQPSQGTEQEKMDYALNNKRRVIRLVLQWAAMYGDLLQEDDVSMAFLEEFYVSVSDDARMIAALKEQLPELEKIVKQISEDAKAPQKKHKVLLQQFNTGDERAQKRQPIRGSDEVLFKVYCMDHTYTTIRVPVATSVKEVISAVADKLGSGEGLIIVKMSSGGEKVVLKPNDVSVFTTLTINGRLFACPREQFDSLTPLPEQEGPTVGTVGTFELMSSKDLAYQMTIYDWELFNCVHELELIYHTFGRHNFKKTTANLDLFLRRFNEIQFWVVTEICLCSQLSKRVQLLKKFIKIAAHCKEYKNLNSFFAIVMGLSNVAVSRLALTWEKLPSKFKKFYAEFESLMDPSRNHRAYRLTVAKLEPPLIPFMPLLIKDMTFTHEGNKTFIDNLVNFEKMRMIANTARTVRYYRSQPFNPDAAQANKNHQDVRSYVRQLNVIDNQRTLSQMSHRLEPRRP
# Experiment: qHTS for Antagonist of cAMP-regulated guanine nucleotide exchange factor 2 (EPAC2): primary screen; further: nearly all actives have a fitted effect of over 45% in size
# Conditions: EPAC2 GEF exchange of Rap1B-BODIPY-GDP, fluorescence; activity, negative = inhibition: at 114 µM (top of the series) unless noted
# On the % scale 0 is the no-effect control and ±100 the full control effect; potency means the concentration at half of the fitted maximal effect; tags describe the fitted curve by direction and shape.
Structure (SMILES),Potency,"activity, negative = inhibition"
O=C(NC(CC(=O)N1CCCC(C(F)(F)F)C1)c1ccccc1)c1ccccc1Cl (stereo unspecified),inactive,–
CNC(=S)N1CCc2cc(OC)c(OC)cc2C1COc1ccc(F)cc1 (stereo unspecified),"inconclusive [inhibitor, partial curve]",–
S=c1[nH]nc(-c2c[nH]c3ccccc23)o1,inactive,–
NC(=O)c1cccc(-c2cnc3c(Nc4cccc(OC(F)(F)C(F)F)c4)nccn23)c1,"inconclusive [inhibitor, partial curve]",–
C/C(=N/Nc1ccc(C(=O)O)cc1)c1ccc(O)c(O)c1O,"inconclusive [inhibitor, single point]",–
CC(=O)c1cc(O)c2ccccc2c1O,inactive,–
CC1CC(C)CN(C(=O)c2cc3cc(Br)cc(Br)c3o2)C1 (stereo unspecified),"inconclusive [inhibitor, partial curve]",–
Fc1ccc(NC(=S)Nc2cc(-c3ccccc3)[nH]n2)cc1Cl,inactive,–
O=c1oc(CCCO)cc2ccc(C#Cc3ccsc3)cc12,"inconclusive [inhibitor, partial curve]",–
COc1ccc(N2CCN(CC(O)COC(c3ccc(F)cc3)c3ccc(F)cc3)CC2)cc1 (stereo unspecified),inactive,–
Cc1ccc(C)c(-c2ccc(=O)n(Cc3cccc(Br)c3)n2)c1,"inconclusive [inhibitor, partial curve]",–
O=C(CSc1nncn1-c1ccccc1)Nc1ccccc1,inactive,–
Cc1ccc(N=Nc2c(O)ccc3n[nH]nc23)cc1,"inconclusive [inhibitor, partial curve, poor fit]",–
CCOc1cc(/C=C2\SC(=S)N(NS(=O)(=O)c3ccc(C)cc3)C2=O)ccc1O,"inconclusive [inhibitor, partial curve]",–
CCC(O)(C(=O)Nc1ccccc1C(F)(F)F)c1ccccc1OC (stereo unspecified),"inconclusive [inhibitor, partial curve]",–
NS(=O)(=O)c1ccc(CCNS(=O)(=O)c2cccc(C(=O)O)c2)cc1,inactive,–
Nc1nc2ccccc2n1Cc1ccc(Cl)c(Cl)c1,"inconclusive [inhibitor, single point]",–
O=C(c1ccc(Cl)cc1)N1CCc2ccccc21,inactive,–
O=C(CSc1nnc(NC2CC2)s1)NN1C(=O)NC2(CCCCC2)C1=O,inactive,–
O=C(C1CC1)N1c2ccccc2Sc2ccccc21,"inconclusive [inhibitor, partial curve]",–
CCOc1cc(C(=O)N2CCC(CC3CC(c4ccccc4)=NO3)(C(=O)NCc3ccc(OC)cc3)CC2)cc(OCC)c1OCC (stereo unspecified),inactive,–
CNS(=O)(=O)c1ccc(C(=O)NCC(=O)NCCC(c2ccccc2)c2ccccc2)cc1,"inconclusive [inhibitor, single point]",–
CCCCCCc1cc2cc(C(=O)OCC)c(=O)oc2cc1O,inactive,–
C[C@H](CO)N1C[C@H](C)[C@@H](CN(C)C)Oc2c(NS(=O)(=O)c3ccccc3)cccc2C1=O,"inconclusive [inhibitor, single point]",–

Structure (SMILES),Potency,"activity, negative = inhibition"
COc1cc2c3nnc(-c4ccc(F)cc4)c-3cn(Cc3cccc(C)c3)c2cc1OC,inactive,–
CCCCCCCn1c(NC(=O)CC)nc2ccccc21,"inconclusive [inhibitor, partial curve]",–
CC(C1CC2CCC1C2)n1c(-c2cccs2)n[nH]c1=S (stereo unspecified),"inconclusive [inhibitor, partial curve]",–
COc1ccc(/C=C2/SC(=S)N(CC(=O)O)C2=O)cc1OCc1ccc(Cl)cc1,inactive,–
Nc1nnc(-c2ccc(Cl)cc2Cl)s1,inactive,–
COc1c2ccc(C(=O)NCc3cc(C(F)(F)F)cc(C(F)(F)F)c3)cc2nn1C,"inconclusive [inhibitor, single point]",–
CCOC(=O)c1cnc2ccc(OCC)cc2c1N(C)Cc1ccccc1,"inconclusive [inhibitor, partial curve]",–
CCOC(=O)[C@@H]1[C@H]2COc3cc(OC)ccc3[C@@H]2N2C(=O)N(c3cccc(C)c3)C(=O)[C@]12C,"inconclusive [inhibitor, partial curve]",–
Oc1ccccc1-n1c(-c2ccccc2)ccc1-c1ccccc1,"inconclusive [inhibitor, partial curve]",–
CC(C)CCN(Cc1ccco1)S(=O)(=O)c1csc(C(N)=O)c1,"inconclusive [inhibitor, partial curve]",–
COc1ccc(Cl)cc1NC(=O)CN1CCc2ccccc21,"inconclusive [inhibitor, partial curve]",–
O=C(NCc1ccco1)/C(=C/c1ccc(C(F)(F)F)cc1)c1nc2ccccc2[nH]1,–,inconclusive: 0.951% [inhibitor]
Cc1ccc(/C=N/n2cnc3sc4c(c3c2=O)CCCC4)o1,inactive,–
COC(=O)c1sccc1Oc1c(Cl)cccc1[N+](=O)[O-],"inconclusive [inhibitor, partial curve]",–
O=c1c2c3c(sc2nc2n1CCC2)CCCCC3,"inconclusive [inhibitor, single point]",–
O=C(NC1CCCCC1)N1CCc2ccccc21,inactive,–
COc1cnc(N(C)C)nc1Sc1cccc(Cl)c1,"inconclusive [inhibitor, partial curve]",–
Cc1sc2ncnc(N(C)C3CCCCC3)c2c1C,"inconclusive [inhibitor, partial curve]",–
O=C(N[C@@H]1CC[C@@H](CCNS(=O)(=O)c2ccc(Cl)cc2)O[C@@H]1CO)c1cccnc1,inactive,–
CCn1ccnc1CC1COc2ccccc2O1 (stereo unspecified),"inconclusive [inhibitor, full curve]",–
COc1ccc(C)cc1NC(=O)C(OC(=O)C1CC1)c1ccccc1 (stereo unspecified),"inconclusive [inhibitor, partial curve]",–
COc1ccc(CNC(=O)C2CC(c3ccc(C(F)(F)F)cc3)=NO2)cc1 (stereo unspecified),–,inconclusive: -3.75% [inhibitor]
O=C(O)CN1C(=O)/C(=C\c2ccccc2OCc2ccc(F)cc2)SC1=S,"inconclusive [inhibitor, partial curve]",–
COc1ccc(SC[C@H](Cc2ccccc2)N2CC[C@@H](C)CCC2=O)cc1,"inconclusive [inhibitor, partial curve]",–

Structure (SMILES),Potency,"activity, negative = inhibition"
O=C(NCCc1ccccn1)C(F)(F)C(F)(F)C(F)(F)C(F)(F)C(F)(F)C(F)(F)C(F)(F)C(F)F,"inconclusive [inhibitor, partial curve]",–
Cc1ccc(C)c(Cn2ncc3ccccc32)c1,"inconclusive [inhibitor, partial curve]",–
O=C(Cc1ccc(F)cc1)Nc1ccccc1Sc1ccccc1,"inconclusive [inhibitor, full curve]",–
CCC1=C(OC(=O)N(CC)CC)N2C(=O)OC(=NCCc3c[nH]c4ccccc34)[C@]2(Cc2ccccc2)[C@H]2C1=CC[C@H]1C(=O)N(C)C(=O)[C@H]12,"inconclusive [inhibitor, single point]",–
C(=C\c1ccccc1)/CN1CCN(C(c2nnnn2-c2ccc3c(c2)OCCO3)C2CC2)CC1 (stereo unspecified),"inconclusive [inhibitor, single point]",–
O=C(Nc1ccccc1O)c1ccc(NC(=O)C2CC2)cc1,inactive,–
COc1cc(C(O)c2nc(-c3ccncc3)cs2)ccc1F (stereo unspecified),"inconclusive [inhibitor, partial curve]",–
Cc1onc(-c2ccccc2Cl)c1C(=O)N1CCC(Cc2ccccc2)CC1,"inconclusive [inhibitor, partial curve]",–
O=C(CN1C(=O)S/C(=C\c2cccs2)C1=O)Nc1ccc(C(=O)O)c(O)c1,"inconclusive [inhibitor, partial curve]",–
O=C(COC(=O)Cc1n[nH]c(=O)c2ccccc12)NNC(=O)c1ccc(Cl)cc1,inactive,–
CC(=O)Nc1cccc(-c2nc3ccccc3n2C(C)C(=O)NC(C)(C)C)c1 (stereo unspecified),inactive,–
O=C(C[n+]1cccc(/C=N/O)c1)N1CCCCCC1,"inconclusive [inhibitor, single point]",–
CCCN(CC1CC1)c1nc(N)c2c(N)nc(OC)cc2c1C#N,"inconclusive [inhibitor, full curve]",–
O=C(O)COc1ccc(NC(=O)C(c2ccccc2)c2ccccc2)cc1,active: 20 µM,–
CCN(CC)CCN1C(=O)C(=O)/C(=C(/O)c2ccc(S(=O)(=O)N3CCOCC3)cc2)C1c1ccc(Cl)cc1 (stereo unspecified),"inconclusive [inhibitor, single point]",–
CC(C)(C)c1ccc(C(=O)Nc2ccc(C(=O)NCc3cccnc3)cc2)cc1,"inconclusive [inhibitor, partial curve]",–
CC(=O)Nc1ccc(-c2ccnc3c2CC(C)(C(=O)Nc2ccc(Cl)cc2)O3)cc1 (stereo unspecified),"inconclusive [inhibitor, partial curve]",–
COCCN(CCOC)Cc1cc(=O)oc2cc(C)c(C)cc12,"inconclusive [inhibitor, partial curve]",–
OC(CNCc1ccccn1)c1ccccc1 (stereo unspecified),inactive,–
COc1cc2c3nnc(-c4ccccc4)c-3cn(Cc3ccc(F)cc3)c2cc1OC,active: 70.8 µM,–
Cc1cccc(-c2cc3nc4c(c(N5CCOCC5)n3n2)CCCC4)c1,inactive,–
Cc1occc1C(=O)N1N=C(C2CC2)CC1(O)C(F)(F)F (stereo unspecified),"inconclusive [inhibitor, single point]",–
Cc1ccc2nc(NC(=O)C3CCN(S(=O)(=O)c4cc([N+](=O)[O-])ccc4Cl)CC3)sc2c1,inactive,–
